{"source": "PubChem BioAssay AID488969", "about": "(Vanderbilt High Throughput Screening Facility, 2010)", "note": "Over roughly 110,000 compounds, “z-score” has its median near -0.1; the highest 2% begin near 2. The list shows a part of the results.", "data": [{"target": "Metabotropic glutamate receptor 8 (Rattus norvegicus) (UniProt P70579)", "sequence (P70579 whole entry, looked up)": "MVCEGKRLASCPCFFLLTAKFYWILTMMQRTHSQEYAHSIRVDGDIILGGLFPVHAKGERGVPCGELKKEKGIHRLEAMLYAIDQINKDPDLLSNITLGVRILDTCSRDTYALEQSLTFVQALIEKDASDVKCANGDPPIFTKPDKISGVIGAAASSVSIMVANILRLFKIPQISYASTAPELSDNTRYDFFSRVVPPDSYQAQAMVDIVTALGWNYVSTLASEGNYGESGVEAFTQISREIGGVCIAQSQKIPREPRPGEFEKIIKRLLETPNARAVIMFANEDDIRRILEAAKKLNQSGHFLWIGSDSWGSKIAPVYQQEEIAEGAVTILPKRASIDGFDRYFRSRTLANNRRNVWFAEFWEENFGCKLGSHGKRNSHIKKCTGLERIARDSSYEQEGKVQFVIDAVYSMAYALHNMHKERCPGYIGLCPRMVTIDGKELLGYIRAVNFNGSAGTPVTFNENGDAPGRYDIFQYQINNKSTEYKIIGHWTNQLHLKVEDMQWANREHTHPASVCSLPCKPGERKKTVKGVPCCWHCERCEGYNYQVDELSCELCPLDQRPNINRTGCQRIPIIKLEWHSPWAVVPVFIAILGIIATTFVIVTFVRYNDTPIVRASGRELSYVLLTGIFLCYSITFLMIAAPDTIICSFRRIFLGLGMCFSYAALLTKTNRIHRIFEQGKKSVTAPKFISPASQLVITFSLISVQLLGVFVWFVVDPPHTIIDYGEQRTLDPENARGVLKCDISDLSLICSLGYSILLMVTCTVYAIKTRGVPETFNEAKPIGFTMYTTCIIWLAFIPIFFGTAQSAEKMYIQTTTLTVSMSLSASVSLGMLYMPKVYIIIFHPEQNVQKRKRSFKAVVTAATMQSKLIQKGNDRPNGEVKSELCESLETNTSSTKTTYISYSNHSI", "assay": "mGluR8 Gi/Go-coupled signaling modulation – cell-based, rat, thallium flux, HTS, primary screen (AID 488969)", "details": "HEK293 rat mGluR8, GIRK (G protein-gated inwardly rectifying potassium channel) thallium flux, FluoZin2; at 10 µM; stronger effect = higher value; submaximal glutamate (EC20) added with thallium", "values": [{"smiles": "CCN1C(=O)c2cccc3c(S(=O)(=O)NCc4ccccn4)ccc1c23", "z-score": -0.155}, {"smiles": "CCOC(=O)c1c(C)[nH]c(C)c1C(=O)CN1C(=O)NC2(CCC(C)CC2)C1=O", "note": "(stereo unspecified)", "z-score": -0.119}, {"smiles": "COc1ccccc1NC(=O)CN(Cc1ccco1)C(=O)c1ccc(-n2nc(C)cc2C)cc1", "z-score": -0.694}, {"smiles": "CN(CC(=O)Nc1cccnc1)S(=O)(=O)c1cc(Cl)ccc1Cl", "z-score": -0.161}, {"smiles": "COc1ccccc1-c1nc2n(n1)C(c1cccs1)C(C(=O)Nc1cccnc1)=C(C)N2", "note": "(stereo unspecified)", "z-score": -0.0169}, {"smiles": "CCn1c(-c2ccc3ncccc3c2)n[nH]c1=S", "z-score": 0.0192}, {"smiles": "Cc1nnc(SCC(=O)Nc2cc(C(C)(C)C)nn2-c2ccccc2)s1", "z-score": -0.346}, {"smiles": "CCOc1ccc(N(CC(=O)NC2CCCC2)C(=O)CCCC(=O)Nc2ccccn2)cc1", "z-score": -0.391}, {"smiles": "CC1=C(C)CC(C(=O)Nc2ccc(C(N)=O)cc2)C(C(=O)O)C1", "note": "(stereo unspecified)", "z-score": -0.183}, {"smiles": "CC1(C)CC2CC(C)(CN2C(=O)CN2C(=O)c3ccccc3C2=O)C1", "note": "(stereo unspecified)", "z-score": 0.018}, {"smiles": "Cc1ccc(-n2c(=O)cc(N3CCC(C)CC3)[nH]c2=O)cc1", "z-score": 1.28}, {"smiles": "NC(=O)C1(NC(=O)[C@@H]2CC3(CC(c4cccc(NC(=O)[C@@H]5CCC(=O)N5)c4)=NO3)CN2C(=O)Cc2ccc(C(F)(F)F)cc2)CC1", "note": "(stereo partly specified)", "z-score": -0.279}, {"smiles": "Cc1cc(=O)[nH]c(SCC(=O)Nc2ccc(Br)cn2)n1", "z-score": -0.346}, {"smiles": "Cc1ccc(-c2ccc(/C=N/N3C(=O)C4C5C=CC(CC5)C4C3=O)o2)c([N+](=O)[O-])c1", "note": "(stereo unspecified)", "z-score": -0.413}, {"smiles": "CCOc1cc(CNCCc2ccc(S(N)(=O)=O)cc2)ccc1OCc1ccc(Cl)cc1", "z-score": 0.202}, {"smiles": "CCCc1cc(=O)[nH]c(SCC(=O)Nc2ccccc2C#N)n1", "z-score": -0.0832}, {"smiles": "CCN(CC)S(=O)(=O)c1ccc(C(=O)Nc2ncn(Cc3ccccc3)n2)cc1", "z-score": -0.302}, {"smiles": "CC1CCN(c2c(NCc3ccc(C(=O)NCC4COc5ccccc5O4)cc3)c(=O)c2=O)CC1", "note": "(stereo unspecified)", "z-score": -0.0649}, {"smiles": "C=CCn1c(SCC(=O)/C(C#N)=C(\\C)N)nc2sc(C)c(C)c2c1=O", "z-score": -0.2}, {"smiles": "O=C1CN=C(Nc2cccc(C(F)(F)F)c2)N1C1CCCC1", "z-score": -2.95}, {"smiles": "O=C(COC(=O)CCC(NC(=O)OCc1ccccc1)C(=O)OCC(=O)Nc1ccccc1)Nc1ccccc1", "note": "(stereo unspecified)", "z-score": -0.684}, {"smiles": "CC1(CC(=O)N/N=C/c2ccc(-c3ccc(C(=O)O)cc3)o2)OCCO1", "z-score": -0.194}, {"smiles": "CCc1nnc(NC(=O)c2cccc(C(=O)Nc3nnc(CC)s3)n2)s1", "z-score": -0.297}, {"smiles": "CCN1CCC(=NNC(=O)c2ccco2)CC1", "z-score": 0.0387}, {"smiles": "COc1ccc(C(=O)Nc2nnc(Cc3cccs3)s2)cc1OC", "z-score": 0.355}, {"smiles": "O=C(CSc1nc(-c2ccccc2F)nc2nc[nH]c12)Nc1c(Cl)cc(Cl)cc1Cl", "z-score": -0.306}, {"smiles": "O=C(Cn1cnc2c(nnn2Cc2ccc(Cl)cc2)c1=O)OCc1ccccc1", "z-score": 0.192}, {"smiles": "O=C(Nc1nncs1)C1COc2ccccc2O1", "note": "(stereo unspecified)", "z-score": 0.542}, {"smiles": "O=C1CN=C(Nc2ccccc2Cl)N1Cc1ccc2c(c1)OCO2", "z-score": 0.308}, {"smiles": "O=C(COC(=O)/C=C/c1cccc(Br)c1)NCCC1=CCCCC1", "z-score": -0.168}, {"smiles": "CCOCCn1c(SCC)nc2c1c(=O)[nH]c(=O)n2C", "z-score": 0.044}, {"smiles": "CCOC(=O)c1[nH]c2ccccc2c1NC(=O)c1cc(OC)c(OC)c(OC)c1", "z-score": -0.703}, {"smiles": "CCc1nc(N=Nc2c(O)[nH]c3ccccc23)c2c3c(sc2n1)CCC3", "z-score": 0.157}, {"smiles": "Cc1cc(C)nc(SC(C)C(=O)N/N=C/c2cccs2)n1", "note": "(stereo unspecified)", "z-score": -0.168}, {"smiles": "O=C(CN1C(=O)COCC1=O)N1CCOCC1", "z-score": -0.249}, {"smiles": "CCOC(=O)c1c(C2COc3ccccc3O2)csc1N", "note": "(stereo unspecified)", "z-score": 0.773}, {"smiles": "O=c1cc(CN2CCN(c3cccc(Cl)c3)CC2)c2cc3c(cc2o1)CCCC3", "z-score": 0.0723}, {"smiles": "O=C(CN1C(=O)NC2(CCCCC2)C1=O)NC1CCCc2ccccc21", "note": "(stereo unspecified)", "z-score": 0.151}, {"smiles": "O=C(COC(=O)CSc1cc(Cl)ccc1Cl)Nc1ncc(C(F)(F)F)cc1Cl", "z-score": -0.401}, {"smiles": "O=C(O)CCC(=O)Nc1ccc(Cc2ccc(NC(=O)CCC(=O)O)cc2)cc1", "z-score": -0.0822}, {"smiles": "CCCOc1ccc(/C(O)=C2/C(=O)C(=O)N(CCN(C)C)C2c2ccco2)cc1", "note": "(stereo unspecified)", "z-score": 0.155}, {"smiles": "CCCCNC(=O)c1ccccc1C(=O)NCCCC", "z-score": 0.0704}, {"smiles": "Cn1c(CO)cnc1SCc1c(Cl)cccc1Cl", "z-score": -0.162}, {"smiles": "Cc1ccc(C(=O)N/C(=C/c2cccc([N+](=O)[O-])c2)C(=O)NC(C)C)cc1", "z-score": -0.0623}, {"smiles": "O=C(NC1CCCCC1)N(CCN1CCOCC1)Cc1cc2cc3c(cc2[nH]c1=O)OCCO3", "z-score": 0.234}, {"smiles": "CC(=O)N1CCN(S(=O)(=O)c2ccccc2)C1c1ccccc1", "note": "(stereo unspecified)", "z-score": -0.0911}, {"smiles": "COc1ccc(CCNC(=O)C2CCCN(S(=O)(=O)c3cnc[nH]3)C2)cc1OC", "note": "(stereo unspecified)", "z-score": -0.0112}, {"smiles": "Cc1cccc(C)c1N(CC(O)Cn1c2ccccc2c2ccccc21)S(C)(=O)=O", "note": "(stereo unspecified)", "z-score": 0.299}, {"smiles": "Cc1nc2ccccc2n1C(=O)c1ccccc1[N+](=O)[O-]", "z-score": -0.0492}, {"smiles": "CO/N=C(/CS(=O)Cc1ccc(Cl)cc1)c1ccc(Cl)cc1", "note": "(stereo unspecified)", "z-score": -0.107}, {"smiles": "Cn1c(=O)[nH]c(=O)c2c1nc(N1CCCCCC1)n2CCCSc1nc2ccccc2o1", "z-score": 0.604}, {"smiles": "CCOC(=O)/C=C1\\SCC(=O)N1CC(=O)NC(C)c1ccccc1", "note": "(stereo unspecified)", "z-score": -0.283}, {"smiles": "Cc1c(=O)n(OCc2ccccn2)c2ccccc2[n+]1[O-]", "z-score": 0.399}, {"smiles": "CCOC(=O)Nc1ccc2c(c1)nc(CN1CCN(C(C)=O)CC1)n2C", "z-score": 0.359}, {"smiles": "O=C1CC(c2cccc(Cl)c2)Cc2nc(N3CCN(c4ccccc4)CC3)ncc21", "note": "(stereo unspecified)", "z-score": 0.343}, {"smiles": "O=C(Nc1nnc(SCC(=O)N2CCCCC2)s1)C1CCCCC1", "z-score": 0.434}, {"smiles": "Cc1ccccc1NC(=O)CC1S/C(=N/c2nccs2)N(C)C1=O", "note": "(stereo unspecified)", "z-score": 0.142}, {"smiles": "COc1ccccc1NC(=O)Cn1cnc2c1c(=O)n(C)c(=O)n2C", "z-score": -0.525}, {"smiles": "CCN1CCCC1CNC(=O)c1c(O)c2c([nH]c1=O)CCCC2", "note": "(stereo unspecified)", "z-score": -0.0826}, {"smiles": "O=C(COC(=O)c1ccccc1OCC(=O)Nc1ccc(Br)cc1)Nc1ccccc1", "z-score": 0.19}, {"smiles": "O=C(CC1=NC2(CCCC2)Cc2ccccc21)N1CCOCC1", "z-score": -0.129}, {"smiles": "CC(C)(C)CC(=O)N1CCC(c2nc3c(nnn3Cc3c(F)cccc3Cl)c(=O)[nH]2)CC1", "z-score": -0.92}, {"smiles": "COc1nc(NCc2ccco2)nc(NC2CCCCC2)n1", "z-score": -0.224}, {"smiles": "N#Cc1c(NC(=O)CN2CCN(S(=O)(=O)c3ccc4c(c3)OCCO4)CC2)sc2c1CCC2", "z-score": -0.773}, {"smiles": "O=C(NCc1cccnc1)c1cccn2c(=O)c3sccc3nc12", "z-score": -0.0801}, {"smiles": "Cc1ccc(OCc2nnc(SCC(=O)O)n2N)cc1", "z-score": -0.00866}]}]}
